Laboratory results reported in PubChem BioAssay (NCATS).
This list was built around the results that the source calls inconclusive (neither active nor inactive); the mix of calls is not that of the screen. For some assays here: Potencies beside an inconclusive call are fits to weak or partial responses and may not hold up. Activity calls are given as the source filed them. Unless noted, calls come from the whole dose curve; as a rule, active = well fitted curve in the direction sought with a large enough effect; inconclusive = small, poorly fitted or top-dose-only effect, or another doubt; inactive = no such curve, though single readings can be large; an effect the other way counts as inactive or inconclusive.

Key:
[1] = molecular target: Aldehyde dehydrogenase, mitochondrial (Homo sapiens) (UniProt P05091); experiment: qHTS for Inhibitors of the Aldehyde Dehydrogenase Family (ALDH2) Confirmatory screens (AID 2061303; active = well fitted inhibition curve with a large enough effect; inconclusive = small, poorly fitted or top-dose-only effect; inactive = no such curve, though single readings can be large or run the other way; title and protocol of this record describe different tests; note: nearly all actives have a fitted effect of over 45% in size); details: ALDH inhibition qHTS; activity change, negative = inhibition: at 45.4 µM (top of the series)
[2] = qHTS for Inhibitors of the Aldehyde Dehydrogenase Family (ALDH1A2, ALDH1A3, ALDH2, ALDH3A1) (AID 2061307); details: ALDH inhibition qHTS; activity change, negative = inhibition: at 50.3 µM (top of the series) unless noted; note: nearly all actives have a fitted effect of over 50% in size; for Potency: test system not described further here
[3] = molecular target: Retinaldehyde dehydrogenase 3 (Homo sapiens) (UniProt P47895); experiment: qHTS for Inhibitors of the Aldehyde Dehydrogenase Family (ALDH1A3) Confirmatory screens (AID 2061311); details: ALDH inhibition qHTS; activity change, negative = inhibition: at 46 µM (top of the series); series mostly up to 46 µM; note: nearly all actives have a fitted effect of over 60% in size
[4] = molecular target: Aldehyde dehydrogenase, mitochondrial (Homo sapiens) (UniProt P05091); experiment: qHTS for Inhibitors of the Aldehyde Dehydrogenase Family (ALDH2) Primary screen (AID 2061308); details: ALDH2 enzyme inhibition qHTS, 1536-well; series mostly up to 56 µM; note: nearly all actives have a fitted effect of over 55% in size
[5] = molecular target: Aldehyde dehydrogenase 1A1 (Homo sapiens) (UniProt P00352); experiment: qHTS for Inhibitors of the Aldehyde Dehydrogenase Family (ALDH1A1) Confirmatory screens (AID 2061316); details: ALDH inhibition qHTS; activity change, negative = inhibition: at 47.3 µM (top of the series); series mostly up to 47.3 µM; note: nearly all actives have a fitted effect of over 65% in size
[6] = molecular target: Retinaldehyde dehydrogenase 3 (Homo sapiens) (UniProt P47895); experiment: qHTS for Inhibitors of the Aldehyde Dehydrogenase Family (ALDH1A3) Validation screen (AID 2061312); details: ALDH1A3 enzyme inhibition qHTS validation, fluorescence; activity change, negative = inhibition: at 84.7 µM (top of the series); note: nearly all actives have a fitted effect of over 45% in size
[7] = molecular target: Retinal dehydrogenase 2 (Homo sapiens) (UniProt O94788); experiment: qHTS for Inhibitors of the Aldehyde Dehydrogenase Family (ALDH1A2) Confirmation screens (AID 2061314); details: ALDH1A2 enzyme inhibition qHTS confirmation; series mostly up to 45.9 µM; note: nearly all actives have a fitted effect of over 65% in size
[8] = molecular target: Retinaldehyde dehydrogenase 3 (Homo sapiens) (UniProt P47895); experiment: qHTS for Inhibitors of the Aldehyde Dehydrogenase Family (ALDH1A3) Primary screen (AID 2061315); details: ALDH inhibition qHTS; activity change, negative = inhibition: at 56 µM (top of the series) unless noted
Potency is the fitted concentration of half-maximal effect; tags give direction and shape of the fitted curve.

Q: What does the source list for O=C(Nc1nc(-c2ccccc2)cs1)c1ccncc1NS(=O)(=O)c1ccc2ccccc2c1?
A: Potency [1]: inconclusive: 22.5 µM [inhibitor, partial curve]; Potency [2]: active: 2.51 µM; Potency [3]: inconclusive: 15.8 µM [inhibitor, single point]

Q: With Cc1ccc2nc3sc(C(=O)NCCN4CCOCC4)cc3cc2c1 as the molecule, how does the Potency [1] read?
A: inactive

Q: What about the Potency [2] of the same molecule?
A: inactive

Q: What about the Potency [4] of the same molecule?
A: inconclusive: 14.1 µM [inhibitor, partial curve, poor fit]

Q: What about the Potency [5] of the same molecule?
A: inactive

Q: With CC(C)(Oc1ccc(-c2nc3cc(Cl)ccc3s2)cc1)C(=O)O as the molecule, how does the Potency [1] read?
A: inconclusive: 17.9 µM [inhibitor, partial curve, poor fit]

Q: And the Potency [2]?
A: inconclusive: 24 µM [inhibitor, partial curve]

Q: What about the Potency [3] of the same molecule?
A: active: 12.6 µM

Q: And the Potency [6]?
A: active: 31.6 µM

Q: And the Potency [7]?
A: inconclusive: 22.5 µM [inhibitor, single point]

Q: What about the Potency [8] of the same molecule?
A: active: 11.2 µM

Q: What about the Potency [5] of the same molecule?
A: inconclusive: 22.5 µM [inhibitor, partial curve, poor fit]

Q: Which results are given for COc1ccc(C2Nc3cccc(OC)c3C(=O)N2Cc2ccccc2)cc1COc1ccc(NC(C)=O)cc1 (stereo not given)?
A: Potency [1]: inconclusive: 2.24 µM [inhibitor, full curve]; Potency [2]: active: 1.13 µM; Potency [3]: active: 12.7 µM

Q: For CCOc1ccc(C(=O)N2CCN(Cc3cc(=O)n4nc(-c5cccc(OC)c5)sc4n3)CC2)cc1, which Potency [1] is on record?
A: inconclusive: 2.51 µM [inhibitor, full curve, poor fit]

Q: What about the Potency [2] of the same molecule?
A: inconclusive: 22.9 µM [inhibitor, partial curve]

Q: And the Potency [3]?
A: inconclusive: 40.8 µM [inhibitor, partial curve, poor fit]
